# According to the supplement of paper PMC4604168 (melanoma cell lines):
# The other results are listed elsewhere or left out. Repeats are few or missing, and single values can be far off.
# Experiments:
# Experiment in all cases: cell count relative to DMSO control; melanoma cells; higher = more viable cells
# Details in all cases: library dose: low library concentration; 72 h
# MZ2-MEL = test system: MZ2-MEL
# MeWo = test system: MeWo
# RPMI7951 = test system: RPMI7951
# RVH-421 = test system: RVH-421
# SkMel28 = test system: SkMel28
# SkMel2 = test system: SkMel2
# SkMel30 = test system: SkMel30
# UACC62 = test system: UACC62
# WM115 = test system: WM115
# WM1716 = test system: WM1716
# WM1745 = test system: WM1745
# WM3526 = test system: WM3526
# WM3619 = test system: WM3619
# WM451Lu = test system: WM451Lu
# 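Further: cell number obtained by counting DAPI-stained nuclei in high-throughput microscope images with image analysis software, screen run in 1,536-well plates.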
Compound,cell count (MZ2-MEL) [%],cell count (MeWo) [%],cell count (RPMI7951) [%],cell count (RVH-421) [%],cell count (SkMel28) [%],cell count (SkMel2) [%],cell count (SkMel30) [%],cell count (UACC62) [%],cell count (WM115) [%],cell count (WM1716) [%],cell count (WM1745) [%],cell count (WM3526) [%],cell count (WM3619) [%],cell count (WM451Lu) [%]
"CCN(CC)CCNC(=O)c1c(C)[nH]c(/C=C2\C(=O)Nc3ccc(F)cc32)c1C [sunitinib] + OCc1c[nH]c2ccccc12 [Indole-3-carbinol] (first compound 0.4 µM, partner dose 0.8 µM)",101,89,96,101,96.5,104,66,99,98.3,118,70.8,64.7,132,113
"CCN(CC)CCNC(=O)c1c(C)[nH]c(/C=C2\C(=O)Nc3ccc(F)cc32)c1C [sunitinib] + Cn1nnc2c(C(N)=O)ncn2c1=O [temozolomide] (first compound 0.4 µM, partner dose 2 µM)",102,91,120,135,103,111,68.4,70,105,128,80.2,86.3,110,93.1
"CCN(CC)CCNC(=O)c1c(C)[nH]c(/C=C2\C(=O)Nc3ccc(F)cc32)c1C [sunitinib] + Nc1ccn([C@@H]2O[C@H](CO)[C@@H](O)C2(F)F)c(=O)n1 [gemcitabine] (first compound 0.4 µM, partner dose 0.0004 µM)",99.2,86.9,111,91.6,106,121,85.3,104,125,145,75.9,82.5,81.7,93.6
"Cn1cnc2c(F)c(Nc3ccc(Br)cc3Cl)c(C(=O)NOCCO)cc21 [selumetinib] + Cc1cc(Nc2cc(N3CCN(C)CC3)nc(/C=C/c3ccccc3)n2)n[nH]1 [ENMD2076] (first compound 0.015 µM, partner dose 0.04 µM)",86.5,84.5,102,95.2,93.5,0.251,73.2,65.5,90.8,120,88.8,65.1,73.7,113
"CCN(CC)CCNC(=O)c1c(C)[nH]c(/C=C2\C(=O)Nc3ccc(F)cc32)c1C [sunitinib] + COCC[n+]1c2c(n(Cc3cnccn3)c1C)C(=O)c1ccccc1C2=O [YM155] (first compound 0.4 µM, partner dose 0.0004 µM)",74.8,76,93.9,102,91.3,99.7,82.3,80.1,100,118,96.2,87.7,102,73.5
"CCN(CC)CCNC(=O)c1c(C)[nH]c(/C=C2\C(=O)Nc3ccc(F)cc32)c1C [sunitinib] + Cn1c(=O)n(-c2ccc(C(C)(C)C#N)cc2)c2c3cc(-c4cnc5ccccc5c4)ccc3ncc21 [NVP-BEZ235] (first compound 0.4 µM, partner dose 0.004 µM)",109,61.2,102,88.8,60.2,104,60.7,61.8,76.6,125,86.3,71.4,130,99.1
"C[C@]1(O)C[C@@H](c2nc(-c3ccc4ccc(-c5ccccc5)nc4c3)c3c(N)nccn32)C1 + NC1(c2ccc(-c3nc4ccn5c(=O)[nH]nc5c4cc3-c3ccccc3)cc2)CCC1 [MK2206] (first compound 0.4 µM, partner dose 0.4 µM)",93.8,94.7,94.9,96.2,78.5,83,93.5,84.2,80.8,102,89.7,70.5,95.3,142
"C[C@]1(O)C[C@@H](c2nc(-c3ccc4ccc(-c5ccccc5)nc4c3)c3c(N)nccn32)C1 + C#Cc1cccc(Nc2ncnc3cc(OCCOC)c(OCCOC)cc23)c1 [erlotinib] (first compound 0.4 µM, partner dose 0.8 µM)",88.9,86.5,95.7,114,111,82,78.7,81.9,95.6,103,75,82.1,92.6,98.1
"COc1cc([C@@H]2c3cc4c(cc3[C@@H](O[C@@H]3O[C@@H]5CO[C@@H](C)O[C@H]5[C@H](O)[C@H]3O)[C@H]3COC(=O)[C@H]23)OCO4)cc(OC)c1O [etoposide] + Cc1nc(Nc2ncc(C(=O)Nc3c(C)cccc3Cl)s2)cc(N2CCN(CCO)CC2)n1 [dasatanib] (first compound 0.02 µM, partner dose 0.004 µM)",68.5,98,54.6,66.9,88.8,92.7,76.8,69.5,73.9,78.4,62,106,113,89.3
